± gives the standard error. Variants at the floor of the assay are shown more often than the library holds them. Bounds are passed on as bounds.

Results on 25 variants are retold here after the supplement of paper PMC7125110.

B1: glmS ribozyme (parent)
chain: AUAAAAGCGCCAGAACUACAGAAAUGUAGUUGACGAGGAGGAGGUUUAUCGAAUUUUCGGCGGAUGCCUCCAAA

Holding throughout (conditions): with glucosamine-6-phosphate
The variants in data set [1] derive from B1. The data set is described as follows: self-cleavage kobs at 40 uM GlcN6P; higher = faster cleavage; RNA array. An outline of the steps: (§1)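 Over ~14 h at 37 °C, tiles were imaged as glucosamine-6-phosphate (40 μM to 10 mM) in HEPES/KCl/Mg(OAc)2 buffer flowed across sequenced MiSeq chips. The chips carried barcoded ribozyme variants transcribed in situ by E. coli RNA polymerase and tracked with a hybridised Cy3 probe. After normalisation to baseline and to non-cleaving reference variants, one- or two-exponential decay fits of per-tile medians gave kobs. kcat and KM followed from weighted Michaelis–Menten fits across concentrations.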

Data set [2] covers variants of B1. The data set is described as follows: self-cleavage kobs at 640 uM GlcN6P; higher = faster cleavage; RNA array. An outline of the steps: as §1
The variants in data set [3] derive from B1. The data set is described as follows: self-cleavage kobs at 10000 uM GlcN6P; higher = faster cleavage; RNA array. An outline of the steps:
as §1

Data set [4] covers variants of B1. The data set is described as follows: self-cleavage kobs at 160 uM GlcN6P; higher = faster cleavage; RNA array. An outline of the steps: as §1
In data set [5] the parent is B1. The data set is described as follows: self-cleavage kobs at 2500 uM GlcN6P; higher = faster cleavage; RNA array. An outline of the steps: as §1

As for U55A C67A, the “self-cleavage kobs at 40 uM GlcN6P” value with glucosamine-6-phosphate [1] came out at 0.000444 ± 0.00015 s⁻¹. Besides, the “self-cleavage kobs at 640 uM GlcN6P” value in the data set with glucosamine-6-phosphate [2] came out at 0.00115 ± 0.00052 s⁻¹. Also, the “self-cleavage kobs at 10000 uM GlcN6P” value with glucosamine-6-phosphate [3] was determined as 0.00563 ± 0.0018 s⁻¹.

G51C A52G: in the data set with glucosamine-6-phosphate [1], the “self-cleavage kobs at 40 uM GlcN6P” value was less than 1e-05 s⁻¹. Besides, in the data set with glucosamine-6-phosphate [4], the “self-cleavage kobs at 160 uM GlcN6P” value was less than 1e-05 s⁻¹. Besides, the “self-cleavage kobs at 2500 uM GlcN6P” value with glucosamine-6-phosphate [5] was less than 1e-05 s⁻¹. Also, in the data set with glucosamine-6-phosphate [3], the “self-cleavage kobs at 10000 uM GlcN6P” value is less than 1e-05 s⁻¹.

Consider A6U G38A G66A, for which the “self-cleavage kobs at 640 uM GlcN6P” value with glucosamine-6-phosphate [2] was less than 1e-05 s⁻¹. Besides, the “self-cleavage kobs at 2500 uM GlcN6P” value in the data set with glucosamine-6-phosphate [5] is less than 1e-05 s⁻¹.

Turning to U46A G51A C58U G62U C70U, the “self-cleavage kobs at 40 uM GlcN6P” value in the data set with glucosamine-6-phosphate [1] was less than 1e-05 s⁻¹.

In the case of U47A A64U, the “self-cleavage kobs at 40 uM GlcN6P” value in the data set with glucosamine-6-phosphate [1] was less than 1e-05 s⁻¹. The “self-cleavage kobs at 640 uM GlcN6P” value in the data set with glucosamine-6-phosphate [2] is less than 1e-05 s⁻¹.

For the variant G43A U45A, the “self-cleavage kobs at 40 uM GlcN6P” value in the data set with glucosamine-6-phosphate [1] is less than 1e-05 s⁻¹.

In the case of G43C U57C, the “self-cleavage kobs at 40 uM GlcN6P” value in the data set with glucosamine-6-phosphate [1] is less than 1e-05 s⁻¹. Moreover, in the data set with glucosamine-6-phosphate [2], the “self-cleavage kobs at 640 uM GlcN6P” value is less than 1e-05 s⁻¹. In addition, the “self-cleavage kobs at 160 uM GlcN6P” value with glucosamine-6-phosphate [4] is less than 1e-05 s⁻¹. Further, the “self-cleavage kobs at 2500 uM GlcN6P” value in the data set with glucosamine-6-phosphate [5] is less than 1e-05 s⁻¹. In addition, the “self-cleavage kobs at 10000 uM GlcN6P” value with glucosamine-6-phosphate [3] is less than 1e-05 s⁻¹.

With A48G A64C, the “self-cleavage kobs at 40 uM GlcN6P” value in the data set with glucosamine-6-phosphate [1] was less than 1e-05 s⁻¹. For the same variant, the “self-cleavage kobs at 640 uM GlcN6P” value in the data set with glucosamine-6-phosphate [2] is less than 1e-05 s⁻¹. Further, the “self-cleavage kobs at 160 uM GlcN6P” value with glucosamine-6-phosphate [4] is less than 1e-05 s⁻¹. Moreover, the “self-cleavage kobs at 2500 uM GlcN6P” value with glucosamine-6-phosphate [5] is less than 1e-05 s⁻¹. Also, in the data set with glucosamine-6-phosphate [3], the “self-cleavage kobs at 10000 uM GlcN6P” value was less than 1e-05 s⁻¹.

With G9C A48G C67G C68A, in the data set with glucosamine-6-phosphate [2], the “self-cleavage kobs at 640 uM GlcN6P” value was 9.72e-05 ± 4.1e-05 s⁻¹. Also, the “self-cleavage kobs at 10000 uM GlcN6P” value in the data set with glucosamine-6-phosphate [3] was 0.000631 ± 0.00016 s⁻¹.

G51U G59U: in the data set with glucosamine-6-phosphate [1], the “self-cleavage kobs at 40 uM GlcN6P” value was less than 1e-05 s⁻¹. The “self-cleavage kobs at 640 uM GlcN6P” value in the data set with glucosamine-6-phosphate [2] was less than 1e-05 s⁻¹. Besides, the “self-cleavage kobs at 10000 uM GlcN6P” value with glucosamine-6-phosphate [3] was less than 1e-05 s⁻¹.

For the variant G9A G37U U54G, in the data set with glucosamine-6-phosphate [2], the “self-cleavage kobs at 640 uM GlcN6P” value was less than 1e-05 s⁻¹. Also, in the data set with glucosamine-6-phosphate [5], the “self-cleavage kobs at 2500 uM GlcN6P” value was less than 1e-05 s⁻¹.

For the variant G9U G40U G41U C70G, in the data set with glucosamine-6-phosphate [2], the “self-cleavage kobs at 640 uM GlcN6P” value was less than 1e-05 s⁻¹.

For the variant U56C G59U, the “self-cleavage kobs at 40 uM GlcN6P” value with glucosamine-6-phosphate [1] is less than 1e-05 s⁻¹. In addition, the “self-cleavage kobs at 160 uM GlcN6P” value with glucosamine-6-phosphate [4] was less than 1e-05 s⁻¹.

With A6C C50U A52G, in the data set with glucosamine-6-phosphate [2], the “self-cleavage kobs at 640 uM GlcN6P” value was less than 1e-05 s⁻¹.

In the case of A42G U56G, the “self-cleavage kobs at 40 uM GlcN6P” value with glucosamine-6-phosphate [1] is 0.000474 ± 5.8e-05 s⁻¹. For the same variant, in the data set with glucosamine-6-phosphate [2], the “self-cleavage kobs at 640 uM GlcN6P” value came out at 0.00411 ± 0.00062 s⁻¹. Moreover, the “self-cleavage kobs at 160 uM GlcN6P” value with glucosamine-6-phosphate [4] is 0.00171 ± 0.00035 s⁻¹.

On to C8G U47C A48U G62C, for which the “self-cleavage kobs at 640 uM GlcN6P” value with glucosamine-6-phosphate [2] was less than 1e-05 s⁻¹.

Regarding A48C C61A, in the data set with glucosamine-6-phosphate [1], the “self-cleavage kobs at 40 uM GlcN6P” value was less than 1e-05 s⁻¹. Besides, the “self-cleavage kobs at 640 uM GlcN6P” value with glucosamine-6-phosphate [2] is less than 1e-05 s⁻¹. The “self-cleavage kobs at 10000 uM GlcN6P” value with glucosamine-6-phosphate [3] was less than 1e-05 s⁻¹.

As for A6C U46C U47C G59A, in the data set with glucosamine-6-phosphate [2], the “self-cleavage kobs at 640 uM GlcN6P” value was less than 1e-05 s⁻¹.

As to G60C U65A, the “self-cleavage kobs at 40 uM GlcN6P” value with glucosamine-6-phosphate [1] is less than 1e-05 s⁻¹. The “self-cleavage kobs at 10000 uM GlcN6P” value with glucosamine-6-phosphate [3] is less than 1e-05 s⁻¹.

Regarding U55A C71U, the “self-cleavage kobs at 40 uM GlcN6P” value with glucosamine-6-phosphate [1] turned out to be 0.00109 ± 0.00019 s⁻¹. Also, the “self-cleavage kobs at 640 uM GlcN6P” value with glucosamine-6-phosphate [2] came to 0.0121 ± 0.0034 s⁻¹. Further, in the data set with glucosamine-6-phosphate [4], the “self-cleavage kobs at 160 uM GlcN6P” value is 0.00212 ± 0.00076 s⁻¹. Further, the “self-cleavage kobs at 2500 uM GlcN6P” value with glucosamine-6-phosphate [5] came out at 0.00755 ± 0.0025 s⁻¹. In the data set with glucosamine-6-phosphate [3], the “self-cleavage kobs at 10000 uM GlcN6P” value was 0.0549 ± 0.013 s⁻¹.

For the variant G60C U69A, the “self-cleavage kobs at 40 uM GlcN6P” value in the data set with glucosamine-6-phosphate [1] is less than 1e-05 s⁻¹. Besides, in the data set with glucosamine-6-phosphate [4], the “self-cleavage kobs at 160 uM GlcN6P” value is less than 1e-05 s⁻¹. Further, in the data set with glucosamine-6-phosphate [5], the “self-cleavage kobs at 2500 uM GlcN6P” value was less than 1e-05 s⁻¹. Besides, in the data set with glucosamine-6-phosphate [3], the “self-cleavage kobs at 10000 uM GlcN6P” value is less than 1e-05 s⁻¹.

In the case of A6G C10G A15G C16U G41U, the “self-cleavage kobs at 640 uM GlcN6P” value with glucosamine-6-phosphate [2] was less than 1e-05 s⁻¹. The “self-cleavage kobs at 2500 uM GlcN6P” value with glucosamine-6-phosphate [5] was less than 1e-05 s⁻¹.

On to U49A G51A, for which the “self-cleavage kobs at 40 uM GlcN6P” value with glucosamine-6-phosphate [1] is less than 1e-05 s⁻¹.

For G7U C11U G40U, in the data set with glucosamine-6-phosphate [2], the “self-cleavage kobs at 640 uM GlcN6P” value was less than 1e-05 s⁻¹. The “self-cleavage kobs at 2500 uM GlcN6P” value in the data set with glucosamine-6-phosphate [5] is less than 1e-05 s⁻¹.

As for A6G G32A G44C, the “self-cleavage kobs at 640 uM GlcN6P” value in the data set with glucosamine-6-phosphate [2] is less than 1e-05 s⁻¹. Also, in the data set with glucosamine-6-phosphate [4], the “self-cleavage kobs at 160 uM GlcN6P” value is less than 1e-05 s⁻¹. Moreover, in the data set with glucosamine-6-phosphate [5], the “self-cleavage kobs at 2500 uM GlcN6P” value was less than 1e-05 s⁻¹.
